In all, about 310,000 compounds went through this assay and about 14,000 (4.5%) showed an effect of 50% or more. Effects have a minus sign here. This is one part of the list.
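Note: peak tail current of the secondary pulse compared with the same well before compound.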

In this assay the target is human ether-à-go-go-related gene (hERG) potassium channel (human, UniProt Q12809). As to the kind of experiment: primary screen, population patch clamp on CHO cells stably expressing hERG.
human ether-à-go-go-related gene (hERG) potassium channel, sequence (Q12809 whole entry, looked up): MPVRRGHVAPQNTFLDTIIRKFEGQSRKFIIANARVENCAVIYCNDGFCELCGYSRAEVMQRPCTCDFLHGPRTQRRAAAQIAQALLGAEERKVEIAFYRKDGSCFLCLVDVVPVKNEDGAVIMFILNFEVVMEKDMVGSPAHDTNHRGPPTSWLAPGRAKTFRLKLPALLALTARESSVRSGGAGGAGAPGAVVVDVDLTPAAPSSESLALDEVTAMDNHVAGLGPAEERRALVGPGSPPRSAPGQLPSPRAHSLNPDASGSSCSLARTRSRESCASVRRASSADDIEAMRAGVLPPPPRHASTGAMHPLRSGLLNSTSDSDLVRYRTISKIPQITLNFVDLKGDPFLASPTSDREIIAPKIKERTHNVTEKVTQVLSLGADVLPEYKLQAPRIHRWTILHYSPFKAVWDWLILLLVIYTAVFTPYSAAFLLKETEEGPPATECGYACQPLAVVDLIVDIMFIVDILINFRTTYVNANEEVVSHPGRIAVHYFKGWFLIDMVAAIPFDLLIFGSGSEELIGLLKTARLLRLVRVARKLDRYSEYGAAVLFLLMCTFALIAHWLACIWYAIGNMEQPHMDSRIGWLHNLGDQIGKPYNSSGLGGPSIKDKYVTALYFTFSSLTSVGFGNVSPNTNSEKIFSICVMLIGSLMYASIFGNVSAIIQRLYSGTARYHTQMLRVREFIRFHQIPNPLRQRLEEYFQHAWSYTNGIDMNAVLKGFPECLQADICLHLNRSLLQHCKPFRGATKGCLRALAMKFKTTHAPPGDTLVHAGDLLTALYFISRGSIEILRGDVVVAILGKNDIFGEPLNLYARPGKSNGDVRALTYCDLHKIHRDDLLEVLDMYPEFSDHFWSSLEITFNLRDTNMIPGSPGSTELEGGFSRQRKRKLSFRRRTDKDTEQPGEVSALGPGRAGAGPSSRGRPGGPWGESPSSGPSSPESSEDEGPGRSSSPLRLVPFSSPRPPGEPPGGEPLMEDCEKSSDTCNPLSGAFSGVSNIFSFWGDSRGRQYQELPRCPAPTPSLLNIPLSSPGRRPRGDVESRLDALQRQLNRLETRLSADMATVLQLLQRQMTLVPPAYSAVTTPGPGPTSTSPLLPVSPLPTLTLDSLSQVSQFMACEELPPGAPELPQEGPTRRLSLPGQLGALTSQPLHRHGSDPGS
Consider `COc1ccc(CNC(=O)COC(=O)c2cccs2)cc1`, for which the “hERG current change (%, negative = inhibition) at 10uM” value is reported as 8.95%.
The same measure for `Cc1cc(C)n(CCNC(=O)CC2C(=O)NCCN2Cc2ccccc2C(F)(F)F)n1` (centres unmarked): 8.81%.
With `Cc1c(C(=O)N2CCCC2)oc2c1-c1nn(CC(=O)NCCCN3CCCCC3)cc1CC2`, the “hERG current change (%, negative = inhibition) at 10uM” value is recorded as 9.72%.
As to `COc1ccc(C(=O)Nc2ccc(C(=O)OCC(=O)c3cccc4ccccc34)cc2)cc1`, the “hERG current change (%, negative = inhibition) at 10uM” value is 9.99%.
For `Cc1ccc2[nH]c(=O)c(-c3nc4c(C)cccn4c3NCc3ccco3)cc2c1`, the “hERG current change (%, negative = inhibition) at 10uM” value was 12.5%.
The same measure for `N#CCSc1nnc(C2CCCCC2)n1-c1ccccc1`: 4.45%.
For the compound `CC(C)OC(=O)CC1=NC(=O)CS1`, the “hERG current change (%, negative = inhibition) at 10uM” value came to 0.398%.
Regarding `COc1cccc(NC(=O)CN(C)S(=O)(=O)c2ccc3c(c2)NC(=O)CS3)c1`, the “hERG current change (%, negative = inhibition) at 10uM” value is reported as -2.47%.
The same measure for `O=C(N/N=C\c1cc2c(cc1Cl)OCO2)c1ccc(Br)s1`: 14.6%.
On to `CCOC(=O)c1ccccc1NC(=O)c1c(F)c(F)c(F)c(F)c1F`, for which the “hERG current change (%, negative = inhibition) at 10uM” value is 10.2%.
The same measure for `CC(C)CCn1c(=O)c(C(=O)NCc2ccco2)c(O)c2ccccc21`: 8.73%; for `COc1ccc(CCNC(=O)CSc2nccc(=O)[nH]2)cc1OC`: 30.5%.
Consider `CN(C)CC(C)(C)CNC(=S)Nc1cc(S(=O)(=O)N2CCOCC2)ccc1Cl`, for which the “hERG current change (%, negative = inhibition) at 10uM” value is given as -8.3%.
Consider `CC1(C)CC(NS(=O)(=O)c2ccccc2)CC(C)(C)N1`, for which the “hERG current change (%, negative = inhibition) at 10uM” value was -22.7%.
In the case of `CCOC(=O)C(C)n1cnc2sc3c(c2c1=O)CCC3` (centres unmarked), the “hERG current change (%, negative = inhibition) at 10uM” value is on record as 11.3%.
With `CC(C)=CCN1CCN(Cc2c(C)nn(C)c2Cl)CC1CCO` (centres unmarked), the “hERG current change (%, negative = inhibition) at 10uM” value was -1.4%.
As for `COc1ccc(NC(C)=O)cc1C`, the “hERG current change (%, negative = inhibition) at 10uM” value is reported as -5.61%.
As for `CCN(CC)c1ccc2cc(NC(=O)CCC(=O)O)c(=O)oc2c1`, the “hERG current change (%, negative = inhibition) at 10uM” value was found to be 11.7%.
The same measure for `Cc1ccc(NC(=O)CCNC(=O)c2ccco2)cc1F`: 11.7%.
On to `S=c1[nH]nc(-c2ccco2)n1/N=C/c1ccccc1`, for which the “hERG current change (%, negative = inhibition) at 10uM” value came out at 9.95%.
The same measure for `CCn1c(-c2cc(-c3cc(C)ccc3C)nc3ccccc23)n[nH]c1=S`: -8.56%.
The same measure for `O=[N+]([O-])c1cccnc1Sc1n[nH]c(-c2ccc(Cl)cc2)n1`: 3%; for `Nc1c2c3c(sc2nc(=O)n1N)CCCC3`: 15.3%; for `CC12CCC(C(=O)N3CCN(c4ncccn4)CC3)(c3nc4ccccc4nc31)C2(C)C` (centres unmarked): -20.2%.
The same measure for `CN1C(=O)CC(c2ccccc2)CC1=O`: -18.9%; for `O=C(NCC(=O)N1CCOCC1)c1ccccc1`: 17%; for `O=C(NCCOCc1ccc(Cl)cc1)c1ncn[nH]1`: 6.91%.
For `CNC(=S)N1CCN(CCN=Cc2c(O)n(-c3ccc(C)cc3)c(=S)[nH]c2=O)CC1`, the “hERG current change (%, negative = inhibition) at 10uM” value turned out to be 21.2%.
On to `O=[N+]([O-])c1ccc2nc(-c3ccccn3)[nH]c2c1`, for which the “hERG current change (%, negative = inhibition) at 10uM” value is 15%.
Regarding `Cc1ccccc1NC(=O)CCCSc1nc2ccccc2s1`, the “hERG current change (%, negative = inhibition) at 10uM” value was -4.5%.
The same measure for `Cc1ccc(S(=O)(=O)Nc2ccc3nc(C)sc3c2)cc1`: 16.5%; for `N#CCSc1nnc(SCC#N)s1`: 6.54%.
With `O=C(Cc1cccs1)Nc1ccccc1F`, the “hERG current change (%, negative = inhibition) at 10uM” value was 10.1%.
For `C/C(=N\OC(=O)c1ccc(C)cc1)c1sc(C)nc1C`, the “hERG current change (%, negative = inhibition) at 10uM” value is listed as -13.9%.
On to `COc1ccc(Oc2ncnc3c2oc2ccc(Br)cc23)cc1`, for which the “hERG current change (%, negative = inhibition) at 10uM” value was 16.8%.
`COc1ccc(OC)c(-c2cc(C(=O)NCc3ccc(Cl)cc3)no2)c1`: the “hERG current change (%, negative = inhibition) at 10uM” value was 31.6%.
As for `CCOc1ccc(S(=O)(=O)N2CCN(Cc3ccc4c(c3)OCO4)CC2)cc1Cl`, the “hERG current change (%, negative = inhibition) at 10uM” value is on record as -8.94%.
The same measure for `CCCC(=O)N1CC(=O)Nc2ccc(C)cc2C1c1ccccc1` (centres unmarked): 0.122%; for `O=[N+]([O-])c1ccc(-c2c(-c3ccccc3)ncc3ccc(F)cc23)cc1`: -9.5%; for `Cc1ccc(-n2nc(C)c(NC(=O)COC(=O)c3ccccc3NCCO)c2C)cc1`: -3.72%.
Turning to `COc1ccc(Br)cc1CNCC1CCCO1` (centres unmarked), the “hERG current change (%, negative = inhibition) at 10uM” value stood at 5.7%.
Take `O=C(NCCc1nccs1)C1CCC(=O)N(CCc2ccc(Cl)cc2)C1` (centres unmarked): the “hERG current change (%, negative = inhibition) at 10uM” value is -31.6%.
In the case of `COc1cccc(C(=O)Nc2nc3ccc(S(C)(=O)=O)cc3s2)c1`, the “hERG current change (%, negative = inhibition) at 10uM” value was 8.27%.
Turning to `CCn1c(SCC(=O)Nc2ccc(N(C)C)cc2)nnc1-c1cccc(C)c1`, the “hERG current change (%, negative = inhibition) at 10uM” value is given as -19.1%.
In the case of `Clc1ccc(CN2CCN(c3ncnc4scc(-c5cccs5)c34)CC2)cc1`, the “hERG current change (%, negative = inhibition) at 10uM” value was -41.3%.
Regarding `CCN(CC)c1ccc(N=Cc2c(O)n(CCc3ccc(OC)c(OC)c3)c(=O)[nH]c2=O)cc1`, the “hERG current change (%, negative = inhibition) at 10uM” value is 8.94%.
In the case of `C#Cc1cccc(NC(=O)c2ccc(Cl)cc2Cl)c1`, the “hERG current change (%, negative = inhibition) at 10uM” value is 7.03%.
On to `Cc1ccc(-c2nn3c(C)nnc3s2)cc1N`, for which the “hERG current change (%, negative = inhibition) at 10uM” value is 0.932%.
As for `O=C(O)CC1(CC(=O)Nc2ccc(Cl)cc2C(=O)c2ccccc2)CCCC1`, the “hERG current change (%, negative = inhibition) at 10uM” value is given as 6.78%.
Regarding `O=C(N/N=C/c1c(O)ccc2ccccc12)c1cccc(C(F)(F)F)c1`, the “hERG current change (%, negative = inhibition) at 10uM” value worked out at 12.1%.
As for `O=C(NCCc1ccccc1)C1CCN(S(=O)(=O)c2ccc(Br)s2)CC1`, the “hERG current change (%, negative = inhibition) at 10uM” value is given as -7.73%.
As for `CCCCCOc1ccc(C(=O)Nc2ccc(S(=O)(=O)Nc3cc(C)on3)cc2)cc1`, the “hERG current change (%, negative = inhibition) at 10uM” value was 21.2%.
For `CCc1ccc(OCC(=O)NC(=S)Nc2ccc(S(=O)(=O)NC3CCCCC3)cc2)cc1`, the “hERG current change (%, negative = inhibition) at 10uM” value was found to be 19.9%.
Consider `O=[N+]([O-])c1ccc(Cl)c(S(=O)(=O)Nc2ccc(-c3ccc(N4CCOCC4)nn3)cc2)c1`, for which the “hERG current change (%, negative = inhibition) at 10uM” value came out at 13.7%.
The same measure for `O=C(NCc1ccccc1Cl)C(=O)NCC1OCCCN1S(=O)(=O)c1cccs1` (centres unmarked): -4.52%; for `C[C@H](NC(=O)N1CCn2c1nc1ccccc12)C(=O)NC1CCCCC1`: -7.83%.
Consider `CCCn1c(O)c(CN2CCCCC2)c(C)c(C#N)c1=O`, for which the “hERG current change (%, negative = inhibition) at 10uM” value was 15.5%.
Turning to `CC(=O)c1cccc(NC(=O)c2cc(-c3ccncc3)nc3ccccc23)c1`, the “hERG current change (%, negative = inhibition) at 10uM” value is -31.3%.
The same measure for `CC(CN1CCCC1)OC(=O)c1ccc(Cl)cc1Cl.Cl` (centres unmarked): -33.7%; for `O=C(CC1C(=O)NCCN1C(=O)Nc1ccc(F)cc1F)Nc1ccc(F)cc1` (centres unmarked): 22.2%.
The same measure for `Cc1ccc(N2C(=O)CC(n3ccnc3)C2=O)cc1C` (centres unmarked): -3.27%; for `CC(C)(C)NC(=O)C(c1ccc(O)cc1)N(C(=O)CCC(=O)Nc1ccccn1)c1ccc(F)cc1` (centres unmarked): 8.1%; for `Clc1cc(Br)ccc1OCCN1CCOCC1.O=C(O)C(=O)O`: -2.95%.
The same measure for `CCOC(=O)CC1C(=O)NCCN1S(=O)(=O)c1ccc(F)cc1` (centres unmarked): 10.4%; for `O=C(O)CN1C(=O)/C(=C\c2cc([N+](=O)[O-])ccc2OCc2ccccc2Cl)SC1=S`: 29.4%.
As for `COc1cc(C(=O)N/C(=C\c2cn(C)c3ccccc23)C(=O)NCCN2CCOCC2)cc(OC)c1OC`, the “hERG current change (%, negative = inhibition) at 10uM” value came to 12.9%.
With `CCOC(=O)C1CCCN(c2cc(C)nc3cc(-c4ccc(F)cc4)nn23)C1` (centres unmarked), the “hERG current change (%, negative = inhibition) at 10uM” value was -44.2%.
The same measure for `CC(=O)Nc1c(-c2ccc3ccccc3c2)nc2ccccn12`: -5.15%; for `COc1ccc(C(=O)Nc2ccc3c(c2)CCCN3C(=O)c2cccs2)c(OC)c1`: -5.24%.
Consider `COc1ccc(-n2c(-c3ccccc3)nnc2-c2ccc(Cl)cc2)cc1`, for which the “hERG current change (%, negative = inhibition) at 10uM” value worked out at 4.96%.
On to `COc1ccc(C(=O)NNC(=O)COc2ccc(Cl)cc2C)cc1S(=O)(=O)N1CCOCC1`, for which the “hERG current change (%, negative = inhibition) at 10uM” value was -77.1%.
As for `COc1ccc(-n2ncc3c(NCc4cccnc4)ncnc32)cc1`, the “hERG current change (%, negative = inhibition) at 10uM” value is recorded as -48.1%.
Regarding `O=C(CCn1nnc2ccccc21)N1CCC(O)(c2cccc(F)c2)CC1`, the “hERG current change (%, negative = inhibition) at 10uM” value stood at 4.12%.
Consider `O=C(NC1=NCCS1)c1ccc(Cl)c(S(=O)(=O)N2CCOCC2)c1`, for which the “hERG current change (%, negative = inhibition) at 10uM” value is recorded as 25.6%.
As for `O=C(C1CCCN(S(=O)(=O)c2cccc3nsnc23)C1)N1CC=C(c2ccccc2)CC1` (centres unmarked), the “hERG current change (%, negative = inhibition) at 10uM” value is recorded as -34.2%.
For the compound `Cc1ccc(S(=O)(=O)N(C)C)cc1NC(=O)c1ccncc1`, the “hERG current change (%, negative = inhibition) at 10uM” value is 4.33%.
As to `CC1(O)c2ccccc2C(=O)N1CCc1ccccc1F` (centres unmarked), the “hERG current change (%, negative = inhibition) at 10uM” value was -23.8%.
The same measure for `OCc1cc(C(O)CNCCCCCCOCCCCc2ccccc2)ccc1O` (centres unmarked): -57.9%.
On to `COc1cccc(OC)c1CN(C)C(=O)c1cnccc1C(F)(F)F`, for which the “hERG current change (%, negative = inhibition) at 10uM” value is 7.47%.
For the compound `CCc1c(C)nc2ncnn2c1Nc1ccccc1C`, the “hERG current change (%, negative = inhibition) at 10uM” value is -34.1%.
For `CCN(CC)c1ccc(/C=N/NC(=O)c2ccoc2C)cc1`, the “hERG current change (%, negative = inhibition) at 10uM” value is -22.5%.
On to `CONc1nc(NC(C)(C)C)nc(OCC#N)n1`, for which the “hERG current change (%, negative = inhibition) at 10uM” value is reported as 2.07%.
The same measure for `Cc1ccc(S(=O)(=O)N2CCN(C(=O)COc3ccc(C)nc3[N+](=O)[O-])CC2)c(C)c1`: -61%; for `Cc1ccc(N(CC(=O)NC2CCCC2)C(=O)c2c(C)noc2C)cc1C`: 8.81%; for `O=C(COc1ccc2ccccc2c1Br)N1CCOCC1`: -18.4%.
The same measure for `Cc1ccc(NC(=O)c2cccc(C(F)(F)F)c2)cc1NC(=O)c1[nH]cnc1C(N)=O`: -1.07%.
As for `CCOCCCNC(=O)C1CCN(S(=O)(=O)c2ccc3nc4c(c(C(=O)O)c3c2)CCCCC4)CC1`, the “hERG current change (%, negative = inhibition) at 10uM” value turned out to be 49.4%.
Take `CCN(c1cccc(C)c1)S(=O)(=O)c1cccc(C(=O)O)c1`: the “hERG current change (%, negative = inhibition) at 10uM” value came out at 15.8%.
The same measure for `O=C(N1CCNCC1)N1CCOCC1`: 3.65%.
